{"source": "PubChem BioAssay AID686978", "about": "(National Center for Advancing Translational Sciences (NCATS), 2013)", "note": "Values joined by “and” are separate entries in the source; they are usually repeats but may differ in a detail not shown here. Identical values can stand only once. The campaign covered roughly 420,000 compounds. About 64,000 (15%) were called active. Inconclusive means that the source gave no clear call. Such entries were picked first, then a sample of the others. Calls come from the whole dose curve; as a rule, active = well fitted inhibition curve with a large enough effect; inconclusive = small, poorly fitted or top-dose-only effect; inactive = flat fitted curve, though single readings scatter. A potency beside an inconclusive call is a rough fit, not a confirmed value. Potency is the fitted concentration of half-maximal effect; tags give direction and shape of the fitted curve."}
{"experiment": "qHTS for Inhibitors of human tyrosyl-DNA phosphodiesterase 1 (TDP1): qHTS in cells in absence of CPT; note: nearly all actives have a fitted effect of over 55% in size", "conditions": "DT40 Tdp1-/- hTDP1 cells, no CPT, ATP luminescence, 48 h; series mostly up to 46.2 µM", "method_in_brief": "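DT40 Tdp1-/-;hTDP1 cells, no CPT (DMSO vehicle only), 400 cells/well; compounds pin-transferred; ≥48 hr, 37 °C; CellTiter-Glo 30 min RT dark, luminescence read.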"}
{"smiles": "COc1ccc(Cn2cc(C(=O)c3ccc(C)cc3)c(=O)c3cc(OC)c(OC)cc32)cc1", "Potency": "inconclusive: 23.1 µM [inhibitor, single point]"}
{"smiles": "COc1cc(-c2cc(=O)c3c(O)c(OC)c(OC)c(OC)c3o2)cc(OC)c1OC", "Potency": "inactive and inconclusive: 7.31 µM [inhibitor, partial curve]"}
{"smiles": "CCOC(=O)c1c(C)n(C)c2ccc(OC)c(NS(=O)(=O)c3ccc(Cl)s3)c12", "Potency": "inconclusive: 20.6 µM [inhibitor, single point]"}
{"smiles": "O=C([C@@H]1C[C@@H](Sc2nc3ccccc3[nH]2)CN1Cc1ccc(C(F)(F)F)cc1)N1CCN(c2ccccc2F)CC1", "Potency": "inconclusive: 25.9 µM [inhibitor, single point]"}
{"smiles": "CCn1cc(C(=O)NCc2ccccc2)c(=O)c2cc(S(=O)(=O)N3CCc4ccccc4C3)ccc21", "Potency": "inconclusive: 16.4 µM [inhibitor, partial curve, poor fit]"}
{"smiles": "COc1cc(C(c2c(C)[nH][nH]c2=O)c2c(C)[nH][nH]c2=O)ccc1OC(=O)c1cccc(C)c1", "Potency": "inconclusive: 18.4 µM [inhibitor, single point]"}
{"smiles": "O=C(c1ccc2c(c1)CCCC2)N1CCN(c2nc3c(F)cccc3s2)CC1", "Potency": "inconclusive: 5.8 µM [inhibitor, full curve, poor fit]"}
{"smiles": "CCCC1C(C#N)=C(N)Oc2n[nH]c(C(C)(C)C)c21", "note": "(configuration not stated)", "Potency": "inconclusive: 29.1 µM [inhibitor, partial curve, poor fit]"}
{"smiles": "Cc1ccc(-n2c(CSc3nc(C)cc(C)n3)nnc2SCC(=O)N2CCCC2)cc1", "Potency": "inactive"}
{"smiles": "COc1ccc2c(c1)[C@H]1[C@H](CO2)[C@H](c2ccccc2)[C@]2(C)C(=O)Nc3cc(Cl)ccc3C(=O)N12", "Potency": "inconclusive: 29.1 µM [inhibitor, single point]"}
{"smiles": "O=C(O)c1ccccc1-c1ccccc1C(=O)Nc1cccc2ccccc12", "Potency": "inactive"}
{"smiles": "CCCOc1ccc(CSCCNC(=S)Nc2ccccc2)cc1", "Potency": "active: 23.1 µM"}
{"smiles": "O=C(NCc1ccccc1CN1CCCC1)C1CCN(S(=O)(=O)c2ccc(Cl)cc2)CC1", "Potency": "inconclusive: 16.4 µM [inhibitor, single point]"}
{"smiles": "COc1ccc(-c2cc(C(=O)NCc3ccc(F)cc3)[nH]n2)c(C)c1", "Potency": "inconclusive: 29.1 µM [inhibitor, single point]"}
{"smiles": "COCc1nnc(NC(=O)CCCOc2ccccc2)s1", "Potency": "inactive"}
{"smiles": "Cc1cc(=O)[nH]c2c(C)cc(S(=O)(=O)NCc3ccccc3)cc12", "Potency": "inconclusive: 25.9 µM [inhibitor, single point]"}
{"smiles": "COc1ccc(C(=O)OC(C)C(=O)NC(C)CCc2ccccc2)cc1OC", "note": "(configuration not stated)", "Potency": "inconclusive: 23.1 µM [inhibitor, partial curve]"}
{"smiles": "Cn1cnc([N+](=O)[O-])c1Sc1nc(N)nc2c1ncn2C1OC(CO)C(O)C1O", "note": "(configuration not stated)", "Potency": "inconclusive: 6.51 µM [inhibitor, partial curve]"}
{"smiles": "O=c1c(-c2cccs2)nc2cnc(N3CCNCC3)nc2n1Cc1cccs1", "Potency": "active: 13 µM"}
{"smiles": "O=C(c1ccccc1)N1CCN(c2ccc([N+](=O)[O-])cc2-n2cccc2)CC1", "Potency": "inconclusive: 29.1 µM [inhibitor, single point]"}
{"smiles": "COc1ccc(S(=O)(=O)N(C)CC(=O)N2CCCC2)cc1OC", "Potency": "inactive"}
{"smiles": "COc1ccc(C2=NC(c3ccncc3)=Nc3ccc(Br)cc3N2)cc1", "Potency": "inconclusive: 16.4 µM [inhibitor, partial curve, poor fit]"}
{"smiles": "CCOC(=O)CN(C)S(=O)(=O)c1ccc(-c2cc(C(=O)OC)sc2C(F)(F)F)cc1", "Potency": "inconclusive: 29.1 µM [inhibitor, single point]"}
{"smiles": "CC1(C)CCC(=O)C=C1Nc1ccc(F)c(Cl)c1", "Potency": "inconclusive: 29.1 µM [inhibitor, single point]"}
{"smiles": "CC(CNC(=O)c1ccc(Br)o1)NC(=O)c1ccc(Br)o1", "note": "(configuration not stated)", "Potency": "active: 4.61 µM"}
{"smiles": "COC(=O)C1=CN(c2cc(C)cc(C)c2)C=C(C(=O)OC)C1c1cccc(F)c1", "Potency": "active: 13 µM"}
{"smiles": "CC[C@]12c3[nH]c4ccc(Cl)cc4c3CCN1C(=O)[C@@H](CC(=O)NCCC1=CCCCC1)C[C@@H]2C(=O)N1CCN(C(=O)C2CC2)CC1", "Potency": "active: 25.9 µM"}
{"smiles": "Cc1ccc(CSCC(=O)Nc2ccc(N3CCOCC3)cc2N2CCOCC2)cc1", "Potency": "inconclusive: 29.1 µM [inhibitor, single point]"}
{"smiles": "COc1ccc(CCNC(=O)CCN2C(=O)C(C)Oc3ccc(C)cc32)cc1OC", "note": "(configuration not stated)", "Potency": "inconclusive: 29.1 µM [inhibitor, single point]"}
{"smiles": "COc1ccc(CN2C[C@@H](CO)O[C@@H](n3cnc4c(N5CCOCC5)ncnc43)C2)cc1", "Potency": "inactive"}
{"smiles": "O=C(NC1CC1)c1ccc(-n2cccc2)cc1", "Potency": "inconclusive: 20.6 µM [inhibitor, partial curve]"}
{"smiles": "C[C@@H]1CN([C@@H](C)CO)C(=O)CCCn2cc(nn2)CO[C@H]1CN(C)C(=O)Oc1ccccc1", "Potency": "inactive"}
{"smiles": "Cc1cccc(NC(=O)c2nc[nH]c2C(=O)NCCCCCCNC(=O)c2[nH]cnc2C(=O)Nc2cccc(C)c2)c1", "Potency": "active: 23.1 µM"}
{"smiles": "CC(=O)NCCc1nc2cc(NC(=O)Nc3ccccc3)ccc2n1C", "Potency": "inactive"}
{"smiles": "Cc1cc(-c2ccc(S(=O)(=O)N3CCN(c4cccc(C)c4C)CC3)s2)on1", "Potency": "inconclusive: 29.1 µM [inhibitor, single point]"}
{"smiles": "Cc1cnc(NC(=O)c2ccc3ncsc3c2)s1", "Potency": "inconclusive: 4.11 µM [inhibitor, partial curve]"}
{"smiles": "OC(c1ccccc1)C(NCc1ccccc1)c1ccccc1", "note": "(configuration not stated)", "Potency": "active: 23.1 µM"}
{"smiles": "COc1cccc(CNS(=O)(=O)c2cc(Br)ccc2Br)c1", "Potency": "inconclusive: 29.1 µM [inhibitor, single point]"}
{"smiles": "COc1cc2c(cc1OC)CN(C1CCCN(Cc3cccc(C(C)=O)c3)C1)CC2", "note": "(configuration not stated)", "Potency": "inactive"}
{"smiles": "O=C(c1cc2ccccc2cc1O)N1CCN(c2ccccc2O)CC1", "Potency": "inconclusive: 29.1 µM [inhibitor, single point]"}
{"smiles": "Fc1cccc(Cc2c(-c3ccccc3)nc3c4ccccc4ccn23)c1", "Potency": "active: 16.4 µM"}
{"smiles": "c1ccc(-c2cncn2-c2ccccc2)cc1", "Potency": "inconclusive: 23.1 µM [inhibitor, single point]"}
